{"source": "PubChem BioAssay AID1461", "about": "(National Center for Advancing Translational Sciences (NCATS), 2008)", "note": "About 2,300 (1%) of roughly 220,000 compounds were called active. This list was built around the results that the source calls inconclusive (neither active nor inactive); the mix of calls is not that of the screen. The call rests on the fitted dose curve; in most records, active means well fitted inhibition curve with a large enough effect; inconclusive means small, poorly fitted or top-dose-only effect, or effect the other way; inactive means no such curve, though single readings can be large or run the other way. Potencies of inconclusive entries are doubtful fits and often do not repeat. On the % scale 0 is the no-effect control and ±100 the full control effect; potency means the concentration at half of the fitted maximal effect; tags describe the fitted curve by direction and shape."}
{"target": "Neuropeptide S receptor (Homo sapiens) (UniProt Q6W5P4)", "sequence (Q6W5P4 whole entry, looked up)": "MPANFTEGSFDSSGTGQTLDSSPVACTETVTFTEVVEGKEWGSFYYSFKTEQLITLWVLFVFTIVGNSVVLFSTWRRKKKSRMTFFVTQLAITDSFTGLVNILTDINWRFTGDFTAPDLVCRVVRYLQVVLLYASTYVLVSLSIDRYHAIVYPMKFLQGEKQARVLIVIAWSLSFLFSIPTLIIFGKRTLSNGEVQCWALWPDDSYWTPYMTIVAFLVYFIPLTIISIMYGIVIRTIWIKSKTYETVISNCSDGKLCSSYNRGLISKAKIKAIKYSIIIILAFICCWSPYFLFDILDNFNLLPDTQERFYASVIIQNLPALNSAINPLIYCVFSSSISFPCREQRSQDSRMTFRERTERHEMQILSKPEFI", "assay": "qHTS Assay for Antagonists of the Neuropeptide S Receptor: cAMP Signal Transduction; further: nearly all actives have a fitted effect of over 50% in size", "conditions": "CHO-NPSR cells, cAMP TR-FRET, antagonist mode; activity change, negative = inhibition: at 38.3 µM (top of the series) unless noted"}
{"compound": "Cc1cc(C)c(NC(=O)CN(C2CCCCC2)C2CCCCC2)c(C)c1", "Potency": "inconclusive: 10 µM [inhibitor, single point]"}
{"compound": "CCCSC1=C(C#N)C(c2ccc(OC)cc2)C2=C(CC(C)(C)CC2=O)N1", "note": "(stereo unspecified)", "Potency": "inconclusive: 10 µM [inhibitor, partial curve]"}
{"compound": "Cc1nnc(N/N=C/c2cc([N+](=O)[O-])c(N3CCC(C)CC3)cc2N2CCC(C)CC2)n1N", "Potency": "active: 10 µM"}
{"compound": "Cc1ccc(NC(=O)/C=C/c2ccco2)nc1", "Potency": "inconclusive: 5.01 µM [activator, full curve]"}
{"compound": "COc1ccc2c(c1OC)C(=O)N1N=C(c3ccc(Cl)cc3)CC21", "note": "(stereo unspecified)", "activity change, negative = inhibition": "inactive: -16.1%"}
{"compound": "Cn1c(=O)cc(SCC(=O)NCCCN2CCN(c3ccc(F)cc3)CC2)c2ccccc21", "Potency": "inconclusive: 12.6 µM [inhibitor, partial curve]"}
{"compound": "O=C(Nc1ccc2c(c1)OCO2)N1CCN(c2ccccc2Cl)CC1", "Potency": "inconclusive: 12.6 µM [inhibitor, partial curve, poor fit]"}
{"compound": "CC1CCN(C(=S)c2cn(Cc3ccccc3F)c3ccccc23)CC1", "Potency": "inconclusive: 10 µM [inhibitor, partial curve]"}
{"compound": "COc1cccc(-n2c(SCC(=O)N3c4ccccc4CC3C)nnc2-c2ccco2)c1", "note": "(stereo unspecified)", "Potency": "inconclusive: 12.6 µM [inhibitor, single point]"}
{"compound": "O=C(COc1ccccc1)Nc1cccc2nsnc12", "activity change, negative = inhibition": "inactive: -13.7% [at 46.1 µM]"}
{"compound": "COc1ccccc1-c1nn2c(-c3ccco3)nnc2s1", "Potency": "inconclusive: 12.6 µM [inhibitor, single point]"}
{"compound": "CCN1CCN(c2cc(C)c3cc(NC(=O)c4cccs4)ccc3n2)CC1", "activity change, negative = inhibition": "inactive: -1.14%"}
{"compound": "CCCCN(CC(=O)Nc1c(C)cccc1CC)C(=O)SCC", "Potency": "inconclusive: 12.6 µM [inhibitor, single point]"}
{"compound": "COc1ccc(-c2nn3c(-c4ccc(F)cc4)nnc3s2)cc1", "Potency": "inconclusive: 31.6 µM [inhibitor, single point]"}
{"compound": "Cc1n[nH]c(C)c1S(=O)(=O)N(CC(=O)Nc1ccc2c(c1)OCCO2)c1ccc(C(C)C)cc1", "Potency": "inconclusive: 12.6 µM [inhibitor, partial curve, poor fit]"}
{"compound": "COc1ccc(Nc2ccc3c(c2)=NC2(CCCCC2)[N+]=3[O-])cc1", "Potency": "inconclusive: 20 µM [inhibitor, single point]"}
{"compound": "O=C(Nc1ccc(F)cc1)Nc1ccc(NC(=O)c2ccccc2O)cc1", "activity change, negative = inhibition": "inactive: -0.0072%"}
{"compound": "Cc1ccc(-n2c(Cc3cccs3)nnc2SCC(=O)Nc2ccc(S(N)(=O)=O)cc2)cc1", "Potency": "inconclusive: 10 µM [inhibitor, single point]"}
{"compound": "COC(=O)CC1(C(=O)OC)Oc2ccc(Br)cc2C(=O)N1c1cccc(Cl)c1Cl", "note": "(stereo unspecified)", "Potency": "inconclusive: 12.6 µM [activator, single point]"}
{"compound": "N#C/C(=C/c1ccccc1[N+](=O)[O-])c1nc(C2CC2)cs1", "activity change, negative = inhibition": "inactive: -15.7% [at 46.1 µM]"}
{"compound": "O=C1c2ccccc2NC(c2ccc(Cl)cc2Cl)N1Cc1ccccc1", "note": "(stereo unspecified)", "Potency": "inconclusive: 10 µM [inhibitor, single point]"}
{"compound": "COc1cc(/C=C(/C#N)C(=O)NCCc2c[nH]c3ccccc23)ccc1OCc1ccccc1F", "Potency": "inconclusive: 10 µM [inhibitor, single point]"}
{"compound": "O=C(N/N=C/c1ccccn1)NC12CC3CC(CC(C3)C1)C2", "activity change, negative = inhibition": "inactive: -48.8%"}
{"compound": "Cc1cc(C)n(-c2nc(Nc3ccccc3C(F)(F)F)nc(-n3nc(C)cc3C)n2)n1", "Potency": "active: 0.316 µM"}
{"compound": "COc1cccc(-c2csc(NC(=O)Oc3ccccc3)n2)c1", "activity change, negative = inhibition": "inactive: -20.9% [at 46.1 µM]"}
{"compound": "CC(C)OC(=O)C(C)(C)Oc1ccc(C(=O)c2ccc(Cl)cc2)cc1", "Potency": "inconclusive: 15.8 µM [inhibitor, partial curve]"}
{"compound": "Cc1ccc(S(=O)(=O)Oc2cccc(/C=N/Nc3ccc(C(=O)O)cc3)c2)cc1", "Potency": "inconclusive: 10 µM [activator, single point]"}
{"compound": "COc1ccc(C(=O)NNC(=O)CN2CCC(n3nnc4cc(C(F)(F)F)ccc43)CC2)cc1", "Potency": "inconclusive: 0.0079 µM [inhibitor, full curve, poor fit]"}
{"compound": "CN1CCN(C2=C(Cl)C(=O)N(Cc3ccccc3)C2=O)CC1", "activity change, negative = inhibition": "inactive: -4.46% [at 46.1 µM]"}
{"compound": "CCOC(=O)c1sc(NC(=S)NC(=O)C2CCCC2)cc1C", "Potency": "inconclusive: 12.6 µM [inhibitor, partial curve]"}
{"compound": "Cn1cc(C(=O)c2ccc(Cl)cc2Cl)cc1C(=O)N/N=C(\\N)COc1cccc(C(F)(F)F)c1", "activity change, negative = inhibition": "inactive: -12% [at 46.1 µM]"}
{"compound": "Cc1ccccc1N1CCN(Cc2nc(Cc3ccccc3F)no2)CC1", "Potency": "inconclusive: 25.1 µM [inhibitor, single point]"}
{"compound": "Oc1[nH]c2ccc(Br)cc2c1N=NC(=S)N1CCOCC1", "Potency": "inconclusive: 5.01 µM [activator, single point]"}
{"compound": "S=C(NCc1ccc(Cl)cc1)NC12CC3CC(CC(C3)C1)C2", "Potency": "inconclusive: 10 µM [inhibitor, single point]"}
{"compound": "COc1ccc(CCn2c(C(C)C)nc3oc4ccccc4c(=O)c3c2=O)cc1", "Potency": "inconclusive: 12.6 µM [inhibitor, single point]"}
{"compound": "CCc1ccccc1NC(=O)CSc1nc2c(c(-c3ccco3)c1C#N)CCCC2", "Potency": "inconclusive: 12.6 µM [inhibitor, single point]"}
{"compound": "O=[N+]([O-])c1ccc(O)c(C=Nc2ccc3c(c2)OCCO3)c1", "activity change, negative = inhibition": "inactive: 15.7%"}
{"compound": "CCN(CC)S(=O)(=O)c1cc([N+](=O)[O-])ccc1NNC(=O)Nc1ccc(F)cc1", "Potency": "inconclusive: 12.6 µM [inhibitor, single point]"}
{"compound": "NC(=O)C1(N2CCCCC2)CCN(C(=O)c2ccc(C#Cc3ccccc3)o2)CC1", "Potency": "inconclusive: 10 µM [inhibitor, partial curve]"}
{"compound": "COc1ccc(CCn2c(C)cc3c(c2=O)C(c2ccc4c(c2)OCO4)C(C#N)=C(N)O3)cc1OC", "note": "(stereo unspecified)", "Potency": "inconclusive: 12.6 µM [inhibitor, partial curve, poor fit]"}
{"compound": "COc1ccccc1-c1cc(-c2ccccc2)nc(SC(C(N)=O)c2ccccc2)c1C#N", "note": "(stereo unspecified)", "Potency": "inconclusive: 10 µM [inhibitor, partial curve]"}
{"compound": "O=C(Cc1ccc(-n2cccc2)cc1)NCc1ccccc1Cl", "activity change, negative = inhibition": "inactive: -5.75%"}
{"compound": "S=C(Nc1ccc2nsnc2c1)N1CCCC1", "Potency": "inconclusive: 12.6 µM [activator, single point]"}
{"compound": "Cc1ccc(SCCNC(=O)c2ccc(C)c(S(=O)(=O)Nc3ccccc3C)c2)cc1", "Potency": "inconclusive: 10 µM [inhibitor, single point]"}
{"compound": "O=C1Nc2ccccc2Oc2cc([N+](=O)[O-])cc(Oc3ccccc3)c21", "activity change, negative = inhibition": "inactive: -44%"}
{"compound": "O=C(Nc1ccccc1)OCCNC(=O)c1ccccc1", "Potency": "inconclusive: 3.98 µM [inhibitor, single point]"}
{"compound": "S=c1[nH]ncn1/N=C/c1ccc(Br)cc1", "Potency": "inconclusive: 25.1 µM [inhibitor, single point]"}
{"compound": "CS(=O)(=O)N1CCN(c2ccccc2NC(=O)C(c2ccccc2)c2ccccc2)CC1", "activity change, negative = inhibition": "inconclusive: -32% [inhibitor] [at 46.1 µM]"}
{"compound": "O=[N+]([O-])c1ccc(/C=N/Nc2nc(N3CCCCC3)nc(N3CCCCC3)n2)cc1", "Potency": "inconclusive: 12.6 µM [activator, partial curve]"}
{"compound": "COc1ccc(NC(=O)CCc2nc(-c3ccc(C)cc3)no2)cc1Cl", "Potency": "inconclusive: 3.16 µM [inhibitor, partial curve]"}
{"compound": "CSc1nnc(-c2ccco2)c(-c2ccco2)n1", "Potency": "inconclusive: 25.1 µM [inhibitor, single point]"}
{"compound": "O=[N+]([O-])c1ccc(C2CCCC/C2=N/OCc2ccc(F)cc2)c([N+](=O)[O-])c1", "note": "(stereo unspecified)", "Potency": "inconclusive: 10 µM [inhibitor, partial curve]"}
{"compound": "CCCCOc1ccc(C(=O)Nn2c(-c3cccs3)nc3ccccc3c2=O)cc1", "Potency": "inconclusive: 25.1 µM [inhibitor, single point]"}
{"compound": "COc1ccc(-n2c(C)c([N+](=O)[O-])c3ccc(O)c(CN4CCCCC4)c32)cc1", "Potency": "inconclusive: 15.8 µM [inhibitor, partial curve, poor fit]"}
{"compound": "Cc1ccc(-n2c(=O)[nH]cc(C(=O)N3CCc4ccccc43)c2=O)cc1C", "Potency": "inconclusive: 25.1 µM [inhibitor, single point]"}
{"compound": "Brc1ccc(CNc2nc3ccccc3n2CCN2CCCCC2)cc1", "Potency": "inconclusive: 25.1 µM [inhibitor, single point]"}
{"compound": "O=C(N(c1ccccc1)c1ccccc1)N(c1ccccc1)c1ccccc1", "Potency": "inconclusive: 10 µM [activator, partial curve]"}
{"compound": "CC(=O)N1C(=O)C2(C(C#N)=C(N)Oc3cc(C)oc(=O)c32)c2ccccc21", "note": "(stereo unspecified)", "activity change, negative = inhibition": "inactive: -8.59% [at 46.1 µM]"}
{"compound": "CC(/C=N/NC(=O)c1cc(-c2ccc(Cl)cc2)nc2ccccc12)=C\\c1ccco1", "Potency": "inconclusive: 25.1 µM [activator, single point]"}
{"compound": "CCOc1ccc(S(=O)(=O)Nc2ccccc2SC)cc1", "Potency": "inconclusive: 10 µM [inhibitor, partial curve]"}
{"compound": "C[C@H](NC(=O)c1nc[nH]c1C(=O)N[C@@H](Cc1ccccc1)C(=O)OC(C)(C)C)c1ccccc1", "Potency": "inconclusive: 12.6 µM [activator, single point]"}
{"compound": "Cc1cccc(-n2c(Cn3nc(C)c([N+](=O)[O-])c3C)n[nH]c2=S)c1", "activity change, negative = inhibition": "inactive: -4.7% [at 46.1 µM]"}
{"compound": "O=C(Nc1ccc(Oc2ccccc2)cc1)C1CCN(c2c3c(nc4ncnn24)CCC3)CC1", "Potency": "active: 12.6 µM"}
{"compound": "COc1ccc(CS(=O)/C(Cl)=C(/Cl)C(=O)Nc2ccc(OC)nc2)cc1", "note": "(stereo unspecified)", "Potency": "inconclusive: 3.16 µM [inhibitor, full curve, poor fit]"}
{"compound": "COc1ccc(-c2nc3ccccn3c2NCc2ccc3c(c2)OCO3)cc1", "activity change, negative = inhibition": "inactive: -2.38% [at 46.1 µM]"}
{"compound": "O=C(NC(CSCc1ccccc1)C(=O)N/N=C/c1ccc(O)cc1O)c1ccc([N+](=O)[O-])cc1", "note": "(stereo unspecified)", "Potency": "inconclusive: 10 µM [inhibitor, single point]"}
